The list shows a part of the results. At the low end of the ranking, values are background and their order means little. The protein was read in a cell extract, so binding may be indirect.
What follows are sequences tested against T1, HNF4alpha8 (COS-7 nuclear extract) (UniProt P41235-5) (assay: protein-binding microarray). Conditions: COS-7 nuclear extract on double-stranded Agilent 4x180k PBM; binding buffer, salt, pH and temperature not given; high values mean tight binding; double strand, one strand shown; sequences stand for … in …GCCTAGGGAGATTAGAGTATCGGTCGA.
T1 sequence: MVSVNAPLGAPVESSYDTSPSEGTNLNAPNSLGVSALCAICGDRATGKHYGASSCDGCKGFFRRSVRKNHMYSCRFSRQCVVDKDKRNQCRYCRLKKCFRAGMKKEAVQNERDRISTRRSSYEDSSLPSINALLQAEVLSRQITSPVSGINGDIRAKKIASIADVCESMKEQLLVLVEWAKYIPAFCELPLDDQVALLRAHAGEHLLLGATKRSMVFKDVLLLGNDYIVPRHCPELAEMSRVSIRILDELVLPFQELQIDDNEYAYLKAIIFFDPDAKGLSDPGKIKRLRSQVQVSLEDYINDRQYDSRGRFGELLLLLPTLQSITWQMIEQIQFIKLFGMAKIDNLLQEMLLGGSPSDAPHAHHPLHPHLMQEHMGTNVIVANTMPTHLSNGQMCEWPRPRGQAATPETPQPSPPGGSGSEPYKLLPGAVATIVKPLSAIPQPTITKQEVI
TAATGCTGGTAAAGCACTTTGCCCCCAAGA gave a binding signal (log2 normalized intensity) of 6.08.
CTCTAAATTCCAGGGCTGGGTCCAGGAATG showed a binding signal (log2 normalized intensity) of 1.04.
Sequence TTACAACTGTAAACATCTAATGAACTGATT has a binding signal (log2 normalized intensity) of 0.181.
GCAACTATTTATGAGTCTTGGGAATGAATC gave a binding signal (log2 normalized intensity) of 0.816.
Work on AGATTACTTCAAGGCTGGAGTTCACTCCCA yielded a binding signal (log2 normalized intensity) of 1.03.
AGGCTGTCAGAGTGCTGCATGCAAAAAGGC gave a binding signal (log2 normalized intensity) of -1.03.
CAGAGCTTGCTGCATTCCCCCACCTACTGT showed a binding signal (log2 normalized intensity) of 3.72.
Work on GCCTCTCAGCTCATTCAAAGTCCAAAAAGA yielded a binding signal (log2 normalized intensity) of 3.55.
TGCCAAAGGTTAAAATTCCCTGTGGAATTT was tested, and the binding signal (log2 normalized intensity) was 2.15.
Sequence TTCTGCTGGATGCCCAGGGATTCCTGAAGA has a binding signal (log2 normalized intensity) of -0.933.
For TTGGAATGTGACGGCAGGTCCATGGTCAGC, the binding signal (log2 normalized intensity) was 0.882.
Sequence GGTATGCCTTTGAAGAGTACAGCCTTGCGT has a binding signal (log2 normalized intensity) of -0.674.
With GATTTTGTCCTGAGTTATTGGAAGAATGGA the binding signal (log2 normalized intensity) was 1.31.
For GCCTCCCAGAACGTGGCCTTTAATCAACTG, the binding signal (log2 normalized intensity) was -0.0579.
In the case of GGCTGAATGGGCAAAGGTCACAAGAGGTGC, the binding signal (log2 normalized intensity) is reported as 5.48.
ACTTGGGATGCTGAGGTGGGAGGATCGCTT gave a binding signal (log2 normalized intensity) of -1.26.
For TGGACTGTAATACACAAGCAATAGGGTTCG, the binding signal (log2 normalized intensity) was 0.543.
With GCAAGGAACGGAATGTGTGATAAGGAACTG the binding signal (log2 normalized intensity) was -1.25.
AGAGTGCTTAATCTCTGCTCATAATGCCAG was tested, and the binding signal (log2 normalized intensity) was -1.36.
For AAGAAAAGTTATGTTGGGCAACTACCTCAA, the binding signal (log2 normalized intensity) was -1.29.
Sequence CCACACATTGCCACACTATTTACACAGCTG has a binding signal (log2 normalized intensity) of -1.31.
With CCAACCGGTTCCACAGTATCCCTTGCTCAA the binding signal (log2 normalized intensity) was -1.33.
With AAATGCATTATTGCACTGTGCTTTGTTTAC the binding signal (log2 normalized intensity) was 1.03.
With TACAAGGAGCAGCCTAGTAAAAGGTAGATA the binding signal (log2 normalized intensity) was -1.27.
For GACATCTATCAACATATCTTATCCTCACAC, the binding signal (log2 normalized intensity) was 0.186.
CTGAGATAGTCATTCTTCTACAGTGTTTAC was tested, and the binding signal (log2 normalized intensity) was 0.606.
AAGGATCAAAGTCACTCAGCCCGAGAAACG gave a binding signal (log2 normalized intensity) of -1.24.
In the case of CCACATGGATGGATTCAGATCCAGTGGACT, the binding signal (log2 normalized intensity) is reported as 2.67.
CCTCGAGGCAACCTTTGACCTGGTACTATG was tested, and the binding signal (log2 normalized intensity) was 6.8.
TACCAGATAGATGCTGCTCTCCCACTCCCC showed a binding signal (log2 normalized intensity) of 2.4.
For AGAATGACCAGGAGTTTGGGATCAGACACG, the binding signal (log2 normalized intensity) was 0.332.
With CCACACCTGTGAAGATCAGCTATCAGTTTA the binding signal (log2 normalized intensity) was -0.577.
In the case of AAAGGGCAAAGGTCAGCTCATTCCCTAGGG, the binding signal (log2 normalized intensity) is reported as 6.71.
AGGTCAAAAATGATGCCTGACTCAAGAAAG showed a binding signal (log2 normalized intensity) of -1.48.
CAAAGTCCAGTAAGGACAGTTCCAGGAATG gave a binding signal (log2 normalized intensity) of 2.11.
Work on GGGCAAAGTCCCCTTTCCTCATATTTTGCA yielded a binding signal (log2 normalized intensity) of 2.82.
In the case of GTCTATCCTTATTTATCTTCCAGCGGGTGC, the binding signal (log2 normalized intensity) is reported as 2.1.
AGGGTGAAGTTTGGCAATTACCCAACAGAC showed a binding signal (log2 normalized intensity) of -1.19.
Sequence GGACTTTGAAGCTCCAAGATAGGAATGTAC has a binding signal (log2 normalized intensity) of 2.77.
ACCAAAAAGGCTAACTTACCCGCTTAAGAG gave a binding signal (log2 normalized intensity) of -1.34.
With TGAATATTTGCTTTCCAGTTCTTTGATAGC the binding signal (log2 normalized intensity) was 0.316.
TCCATTCCGCGAGGGTCCCCACCTTCCATT showed a binding signal (log2 normalized intensity) of 1.08.
Work on GGGCAAAGGAATAAAATAGCTGCCTGTGTG yielded a binding signal (log2 normalized intensity) of -1.39.
Work on GCGTAGCCCAAAGGTCAGTCTGCAGCTAAT yielded a binding signal (log2 normalized intensity) of 3.36.
ACTTACATCCTCAGGTAAAGATCAACCATC showed a binding signal (log2 normalized intensity) of 0.47.
TTTCCTAAATATGTTCCAAAGTTCAACCAG showed a binding signal (log2 normalized intensity) of 5.14.
In the case of ACTTTGGCCGTGAAGCCGTCCTGTCCTGGA, the binding signal (log2 normalized intensity) is reported as 0.978.
Work on CTGTGTATACAAAGATCAGTGTACTTAAAA yielded a binding signal (log2 normalized intensity) of 1.16.
GGCTTAGCAGCTTGAGGCTCCGATAAACCC showed a binding signal (log2 normalized intensity) of -1.14.
AACACAAAAAGCCTGAGCATCTTATCAGCA was tested, and the binding signal (log2 normalized intensity) was -1.4.
With ACTTGTTCCGGATAGCCAAATAGCCTGGTC the binding signal (log2 normalized intensity) was -0.0286.
For GATAGCAAGGAGACATCGCTCCTCCCTTCT, the binding signal (log2 normalized intensity) was -1.38.
ACTGCTCCACCAGCGCGTGCCTTCCCTGCA gave a binding signal (log2 normalized intensity) of -1.26.
AGGCAGTCTGTTGACCTTTGGCCAAGGGCA showed a binding signal (log2 normalized intensity) of 8.19.
In the case of AAAGTTCTGCTGAGTATCCAAAGGTCAGTG, the binding signal (log2 normalized intensity) is reported as 6.24.
GATCTGAACTCAAGCTCTTAAAGAAGCAGT was tested, and the binding signal (log2 normalized intensity) was -0.93.
Work on TAGGGACAGCTAGTCTAGACTTTGCTTTCT yielded a binding signal (log2 normalized intensity) of 3.82.
Work on GCTTATCTGGGAGGGGGAGGTTTTGTGTCT yielded a binding signal (log2 normalized intensity) of 0.884.
Work on GATTTGTAACCTGCAAAGAGCAAACTCCAG yielded a binding signal (log2 normalized intensity) of -0.0423.
TGTGCAGAGAGCAAACGAACCGGCAGCCGC showed a binding signal (log2 normalized intensity) of -1.22.
For AGTCCAAAGGTCTGAGAACCAAGAGAGCCA, the binding signal (log2 normalized intensity) was 1.62.
Work on CATACAATTCATGACTCTCTTATAGGTGTT yielded a binding signal (log2 normalized intensity) of 0.846.
AGAGTTCAAGAAGGGCAGTTGACAGAGGAC gave a binding signal (log2 normalized intensity) of -0.67.
TGAACCTAGATTCCAGGAAGAAAGATTGAA gave a binding signal (log2 normalized intensity) of -1.28.
TGCTGGCTGGCGGCCTTTGGGTCCCTGGCC was tested, and the binding signal (log2 normalized intensity) was 1.05.
In the case of GGTGCTGCATGGGCTGAGCCCAGCAAACCT, the binding signal (log2 normalized intensity) is reported as -1.35.
GCAATGATCTTCATGAACTTCTGTCCACAG showed a binding signal (log2 normalized intensity) of 0.847.
CATTCCAACACAGGGTCAATGTCCCCTTAG showed a binding signal (log2 normalized intensity) of 3.7.
CACCCCCACGGTGCGCTGCCCCTCACTGCC showed a binding signal (log2 normalized intensity) of 4.8.
For CTGCTTACATTTTGCTCTGTTGTGTCAAAG, the binding signal (log2 normalized intensity) was 1.74.
Work on GAAGGACATAAATGTGCCCAGATAAGAACT yielded a binding signal (log2 normalized intensity) of -1.38.
Sequence AACTGGACAAATTCCTGGGAACTGCGGACA has a binding signal (log2 normalized intensity) of -1.32.
Sequence AGGGGTTACTAGTGAGTTGGACTTTGGACC has a binding signal (log2 normalized intensity) of 11.6.

Source: paper PMC10726135
